# This is one part of the list.
# B1: SRA-1 (Homo sapiens), P21757 (protein)
# chain: MEQWDHFHNQQEDTDSCSESVKFDARSMTALLPPNPKNSPSLQEKLKSFKAALIALYLLVFAVLIPLIGIVAAQLLKWETKNCSVSSTNANDITQSLTGKGNDSEEEMRFQEVFMEHMSNMEKRIQHILDMEANLMDTEHFQNFSMTTDQRFNDILLQLSTLFSSVQGHGNAIDEISKSLISLNTTLLDLQLNIENLNGKIQENTFKQQEEISKLEERVYNVSAEIMAMKEEQVHLEQEIKGEVKVLNNITNDLRLKDWEHSQTLRNITLIQGPPGPPGEKGDRGPTGESGPRGFPGPIGPPGLKGDRGAIGFPGSRGLPGYAGRPGNSGPKGQKGEKGSGNTLTPFTKVRLVGGSGPHEGRVEILHSGQWGTICDDRWEVRVGQVVCRSLGYPGVQAVHKAAHFGQGTGPIWLNEVFCFGRESSIEECKIRQWGTRACSHSEDAGVTCTL
# Tests used:
# Assay in all cases: glycan array binding signal (z-score within array); higher = stronger binding
# Details in all cases: glycan notation: IUPAC condensed, linker removed
# [1] = molecular target: GlcNAc(b1-4)GlcNAc(b1-4)GlcNAc(b1-4)GlcNAc(b1-4)GlcNAc
# Method in brief: (§1)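 Negative Z-scores can be read as non-binding. The Z-score is calculated within each array and then averaged across arrays of one protein sequence at different concentrations or buffers and across linkers. Arrays, 3228 in all, were curated from the Consortium for Functional Glycomics database and kept only where the protein sequence was available.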
# [2] = molecular target: GlcNAc(b1-4)GlcNAc(b1-4)GlcNAc(b1-4)GlcNAc(b1-4)GlcNAc(b1-4)GlcNAc
# Method in brief: as §1
# [3] = molecular target: GlcNAc(b1-4)[GlcNAc(b1-6)]GalNAc
# Method in brief: as §1
# [4] = molecular target: GlcNAc(b1-6)Gal(b1-4)GlcNAc
# Method in brief: as §1
# GlcNAc(b1-6)GalNAc = molecular target: GlcNAc(b1-6)GalNAc
# Method in brief: as §1
# [5] = molecular target: GlcNAc6S(b1-3)Gal(b1-4)GlcNAc
# Method in brief: as §1
# Kdn(a2-3)Gal(b1-3)GalNAc = molecular target: Kdn(a2-3)Gal(b1-3)GalNAc
# Method in brief: as §1
# Kdn(a2-3)Gal(b1-3)GlcNAc = molecular target: Kdn(a2-3)Gal(b1-3)GlcNAc
# Method in brief: as §1
# Kdn(a2-3)Gal(b1-4)Glc = molecular target: Kdn(a2-3)Gal(b1-4)Glc
# Method in brief: as §1
# Kdn(a2-3)Gal(b1-4)GlcNAc = molecular target: Kdn(a2-3)Gal(b1-4)GlcNAc
# Method in brief: as §1
# [6] = molecular target: Kdn(a2-3)Gal(b1-4)[Fuc(a1-3)]GlcNAc
# Method in brief: as §1
# Kdn(a2-6)Gal(b1-4)GlcNAc = molecular target: Kdn(a2-6)Gal(b1-4)GlcNAc
# Method in brief: as §1
# [7] = molecular target: Man(a1-2)Man(a1-2)Man(a1-3)Man
# Method in brief: as §1
# [8] = molecular target: Man(a1-2)Man(a1-2)Man(a1-6)[Man(a1-3)]Man
# Method in brief: as §1
# Man(a1-2)Man(a1-3)Man = molecular target: Man(a1-2)Man(a1-3)Man
# Method in brief: as §1
# [9] = molecular target: Man(a1-2)Man(a1-3)[Man(a1-2)Man(a1-6)]Man
# Method in brief: as §1
# [10] = molecular target: Man(a1-2)Man(a1-3)[Man(a1-2)Man(a1-6)]Man(a1-6)[Man(a1-2)Man(a1-2)Man(a1-3)]Man
# Method in brief: as §1
# [11] = molecular target: Man(a1-2)Man(a1-3)[Man(a1-2)Man(a1-6)]Man(a1-6)[Man(a1-2)Man(a1-2)Man(a1-3)]Man(b1-4)GlcNAc(b1-4)GlcNAc
# Method in brief: as §1
# [12] = molecular target: Man(a1-2)Man(a1-3)[Man(a1-6)]Man(a1-6)[Man(a1-2)Man(a1-3)]Man(b1-4)GlcNAc(b1-4)GlcNAc
# Method in brief: as §1
# [13] = molecular target: Man(a1-2)Man(a1-6)[Man(a1-3)]Man(a1-6)[Man(a1-2)Man(a1-2)Man(a1-3)]Man
# Method in brief: as §1
# [14] = molecular target: Man(a1-2)Man(a1-6)[Man(a1-3)]Man(a1-6)[Man(a1-2)Man(a1-2)Man(a1-3)]Man(b1-4)GlcNAc(b1-4)GlcNAc
# Method in brief: as §1
# Man(a1-3)[Man(a1-6)]Man = molecular target: Man(a1-3)[Man(a1-6)]Man
# Method in brief: as §1
# [15] = molecular target: Man(a1-3)[Man(a1-6)]Man(a1-6)[Man(a1-2)Man(a1-3)]Man(b1-4)GlcNAc(b1-4)GlcNAc
# Method in brief: as §1
# [16] = molecular target: Man(a1-3)[Man(a1-6)]Man(a1-6)[Man(a1-3)]Man
# Method in brief: as §1
# [17] = molecular target: Man(a1-3)[Man(a1-6)]Man(a1-6)[Man(a1-3)]Man(b1-4)GlcNAc(b1-4)GlcNAc
# Method in brief: as §1
# [18] = molecular target: Man(a1-3)[Man(a1-6)]Man(b1-4)GlcNAc(b1-4)GlcNAc
# Method in brief: as §1
# [19] = molecular target: Man(a1-3)[Man(a1-6)]Man(b1-4)GlcNAc(b1-4)[Fuc(a1-6)]GlcNAc
# Method in brief: as §1
# Man(a1-6)Man = molecular target: Man(a1-6)Man
# Method in brief: as §1
# Man(b1-4)GlcNAc = molecular target: Man(b1-4)GlcNAc
# Method in brief: as §1
# MurNAc(b1-4)GlcNAc = molecular target: MurNAc(b1-4)GlcNAc
# Method in brief: as §1
# Neu5Ac(a2-3)Gal = molecular target: Neu5Ac(a2-3)Gal
# Method in brief: as §1
# [20] = molecular target: Neu5Ac(a2-3)Gal(b1-3)GalNAc
# Method in brief: as §1
# [21] = molecular target: Neu5Ac(a2-3)Gal(b1-3)GalNAc(b1-3)Gal(a1-4)Gal(b1-4)Glc
# Method in brief: as §1
# [22] = molecular target: Neu5Ac(a2-3)Gal(b1-3)GalNAc(b1-4)[Neu5Ac(a2-3)]Gal(b1-4)Glc
# Method in brief: as §1
# [23] = molecular target: Neu5Ac(a2-3)Gal(b1-3)GalNAc(b1-4)[Neu5Ac(a2-8)Neu5Ac(a2-3)]Gal(b1-4)Glc
# Method in brief: as §1
# [24] = molecular target: Neu5Ac(a2-3)Gal(b1-3)GalNAc6S
# Method in brief: as §1
# [25] = molecular target: Neu5Ac(a2-3)Gal(b1-3)GlcNAc
# Method in brief: as §1
binder,measurement,setting,value
B1,glycan array binding signal (z-score),[1],-0.077
same,glycan array binding signal (z-score),[2],0.272
same,glycan array binding signal (z-score),[3],0.201
same,glycan array binding signal (z-score),[4],0.773
same,glycan array binding signal (z-score),GlcNAc(b1-6)GalNAc,0.417
same,glycan array binding signal (z-score),[5],0.417
same,glycan array binding signal (z-score),Kdn(a2-3)Gal(b1-3)GalNAc,-0.143
same,glycan array binding signal (z-score),Kdn(a2-3)Gal(b1-3)GlcNAc,-0.381
same,glycan array binding signal (z-score),Kdn(a2-3)Gal(b1-4)Glc,-0.175
same,glycan array binding signal (z-score),Kdn(a2-3)Gal(b1-4)GlcNAc,-0.014
same,glycan array binding signal (z-score),[6],0.697
same,glycan array binding signal (z-score),Kdn(a2-6)Gal(b1-4)GlcNAc,0.148
same,glycan array binding signal (z-score),[7],-0.235
same,glycan array binding signal (z-score),[8],-0.193
same,glycan array binding signal (z-score),Man(a1-2)Man(a1-3)Man,0.271
same,glycan array binding signal (z-score),[9],0.398
same,glycan array binding signal (z-score),[10],-0.682
same,glycan array binding signal (z-score),[11],-0.331
same,glycan array binding signal (z-score),[12],-0.281
same,glycan array binding signal (z-score),[13],-0.352
same,glycan array binding signal (z-score),[14],0.208
same,glycan array binding signal (z-score),Man(a1-3)[Man(a1-6)]Man,-0.005
same,glycan array binding signal (z-score),[15],-0.383
same,glycan array binding signal (z-score),[16],-0.213
same,glycan array binding signal (z-score),[17],0.287
same,glycan array binding signal (z-score),[18],-0.245
same,glycan array binding signal (z-score),[19],-0.293
same,glycan array binding signal (z-score),Man(a1-6)Man,0.123
same,glycan array binding signal (z-score),Man(b1-4)GlcNAc,-0.472
same,glycan array binding signal (z-score),MurNAc(b1-4)GlcNAc,-0.157
same,glycan array binding signal (z-score),Neu5Ac(a2-3)Gal,-0.299
same,glycan array binding signal (z-score),[20],-0.387
same,glycan array binding signal (z-score),[21],-0.833
same,glycan array binding signal (z-score),[22],0.198
same,glycan array binding signal (z-score),[23],-0.456
same,glycan array binding signal (z-score),[24],-0.086
same,glycan array binding signal (z-score),[25],-0.14

# — the supplement of paper PMC8728848
